In the supplement of paper PMC8728848:
This is one part of the list.

Tests used:
Assay in all cases: glycan array binding signal (z-score within array); higher = stronger binding
Settings in all cases: glycan notation: IUPAC condensed, linker removed; mutation: R343V
Fuc(a1-2)Gal = target: Fuc(a1-2)Gal
Summary of the method: (§1)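 Glycan array data came from 3228 arrays in the Consortium for Functional Glycomics database, and only arrays with an available protein sequence were kept. Glycan names were put into IUPAC-condensed notation, and columns mapping to the same glycan were averaged. The binding signal is a within-array Z-score, averaged across arrays of one protein sequence run at different concentrations or buffers and across linkers. A negative Z-score can be read as non-binding.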

Fuc(a1-2)Gal(b1-3)GalNAc = target: Fuc(a1-2)Gal(b1-3)GalNAc
Summary of the method: as §1

[1] = target: Fuc(a1-2)Gal(b1-3)GalNAc(b1-3)Gal
Summary of the method: as §1

[2] = target: Fuc(a1-2)Gal(b1-3)GalNAc(b1-3)Gal(a1-4)Gal(b1-4)Glc
Summary of the method: as §1

[3] = target: Fuc(a1-2)Gal(b1-3)GalNAc(b1-4)[Neu5Ac(a2-3)]Gal(b1-4)Glc
Summary of the method: as §1

Fuc(a1-2)Gal(b1-3)GlcNAc = target: Fuc(a1-2)Gal(b1-3)GlcNAc
Summary of the method: as §1

[4] = target: Fuc(a1-2)Gal(b1-3)GlcNAc(b1-3)Gal(b1-4)Glc
Summary of the method: as §1

[5] = target: Fuc(a1-2)Gal(b1-3)[Fuc(a1-4)]GlcNAc
Summary of the method: as §1

Fuc(a1-2)Gal(b1-4)Glc = target: Fuc(a1-2)Gal(b1-4)Glc
Summary of the method: as §1

Fuc(a1-2)Gal(b1-4)Glc6S = target: Fuc(a1-2)Gal(b1-4)Glc6S
Summary of the method: as §1

Fuc(a1-2)Gal(b1-4)GlcNAc = target: Fuc(a1-2)Gal(b1-4)GlcNAc
Summary of the method: as §1

[6] = target: Fuc(a1-2)Gal(b1-4)GlcNAc(b1-3)Gal(b1-4)GlcNAc
Summary of the method: as §1

[7] = target: Fuc(a1-2)Gal(b1-4)GlcNAc(b1-3)Gal(b1-4)GlcNAc(b1-3)Gal(b1-4)GlcNAc
Summary of the method: as §1

[8] = target: Fuc(a1-2)Gal(b1-4)GlcNAc6S
Summary of the method: as §1

[9] = target: Fuc(a1-2)Gal(b1-4)[Fuc(a1-3)]GlcNAc
Summary of the method: as §1

[10] = target: Fuc(a1-2)Gal(b1-4)[Fuc(a1-3)]GlcNAc(b1-3)Gal(b1-4)[Fuc(a1-3)]GlcNAc
Summary of the method: as §1

[11] = target: Fuc(a1-2)Gal(b1-4)[Fuc(a1-3)]GlcNAc(b1-3)Gal(b1-4)[Fuc(a1-3)]GlcNAc(b1-3)Gal(b1-4)[Fuc(a1-3)]GlcNAc
Summary of the method: as §1

Fuc(a1-2)Gal6S(b1-4)Glc = target: Fuc(a1-2)Gal6S(b1-4)Glc
Summary of the method: as §1

[12] = target: Fuc(a1-2)Gal6S(b1-4)Glc6S
Summary of the method: as §1

[13] = target: Fuc(a1-2)Gal6S(b1-4)GlcNAc
Summary of the method: as §1

Fuc(a1-2)[Gal(a1-3)]Gal = target: Fuc(a1-2)[Gal(a1-3)]Gal
Summary of the method: as §1

[14] = target: Fuc(a1-2)[Gal(a1-3)]Gal(b1-3)GlcNAc
Summary of the method: as §1

[15] = target: Fuc(a1-2)[Gal(a1-3)]Gal(b1-4)Glc
Summary of the method: as §1

[16] = target: Fuc(a1-2)[Gal(a1-3)]Gal(b1-4)GlcNAc
Summary of the method: as §1

[17] = target: Fuc(a1-2)[Gal(a1-3)]Gal(b1-4)[Fuc(a1-3)]GlcNAc
Summary of the method: as §1

[18] = target: Fuc(a1-2)[Gal(a1-4)]Gal(b1-4)GlcNAc
Summary of the method: as §1

[19] = target: Fuc(a1-2)[GalNAc(a1-3)]Gal
Summary of the method: as §1

[20] = target: Fuc(a1-2)[GalNAc(a1-3)]Gal(b1-3)GlcNAc
Summary of the method: as §1

[21] = target: Fuc(a1-2)[GalNAc(a1-3)]Gal(b1-4)Glc
Summary of the method: as §1

[22] = target: Fuc(a1-2)[GalNAc(a1-3)]Gal(b1-4)GlcNAc
Summary of the method: as §1

[23] = target: Fuc(a1-2)[GalNAc(a1-3)]Gal(b1-4)[Fuc(a1-3)]GlcNAc
Summary of the method: as §1

[24] = target: Fuc(a1-2)[GalNAc(a1-4)]Gal(b1-4)GlcNAc
Summary of the method: as §1

[25] = target: Fuc(a1-2)[GalNAc(b1-3)]Gal
Summary of the method: as §1

Fuc(a1-3)GlcNAc = target: Fuc(a1-3)GlcNAc
Summary of the method: as §1

[26] = target: Fuc(a1-3)[Gal(b1-4)]Glc6S
Summary of the method: as §1

[27] = target: Fuc(a1-3)[Gal(b1-4)]GlcNAc
Summary of the method: as §1

[28] = target: Fuc(a1-3)[Gal(b1-4)]GlcNAc(b1-2)Man(a1-3)[Fuc(a1-3)[Gal(b1-4)]GlcNAc(b1-2)Man(a1-6)]Man(b1-4)GlcNAc(b1-4)GlcNAc
Summary of the method: as §1

[29] = target: Fuc(a1-3)[Gal(b1-4)]GlcNAc(b1-2)Man(a1-6)[Gal(b1-4)GlcNAc(b1-2)Man(a1-3)]Man(b1-4)GlcNAc(b1-4)GlcNAc
Summary of the method: as §1

[30] = target: Fuc(a1-3)[Gal(b1-4)]GlcNAc(b1-3)Gal(b1-3)[Fuc(a1-4)]GlcNAc
Summary of the method: as §1

[31] = target: Fuc(a1-3)[Gal(b1-4)]GlcNAc(b1-4)Gal(b1-4)[Fuc(a1-3)]GlcNAc
Summary of the method: as §1

[32] = target: Fuc(a1-3)[Gal(b1-4)]GlcNAc(b1-4)Gal(b1-4)[Fuc(a1-3)]GlcNAc(b1-4)Gal(b1-4)[Fuc(a1-3)]GlcNAc
Summary of the method: as §1

[33] = target: Fuc(a1-3)[Gal(b1-4)]GlcNAc6S
Summary of the method: as §1

[34] = target: Fuc(a1-3)[Gal3S(b1-4)]Glc6S
Summary of the method: as §1

[35] = target: Fuc(a1-3)[Gal3S(b1-4)]GlcNAc
Summary of the method: as §1

[36] = target: Fuc(a1-3)[Gal3S(b1-4)]GlcNAc6S
Summary of the method: as §1

B1: Surfactant Protein D (Human); Neck + Carbohydrate Recognition Domain (NCRD) (Homo sapiens) (protein)
chain: MLLFLLSALVLLTQPLGYLEAEMKTYSHRTMPSACTLVMCSSVESGLPGRDRDGREGPRGEKGDPGLPGAAGQAGMPGQAGPVGPKGDNGSVGEPGPKGDTGPSGPPGPPGVPGPAGREGALGKQGNIGPQGKPGPKGEAGPKGEVGAPGMQGSAGARGLAGPKGERGVPGERGVPGNTGAAGSAGAMGPQGSPGARGPPGLKGDKGIPGDKGAKGESGLPDVASLRQQVEALQGQVQHLQAAFSQYKKVELFPNGQSVGEKIFKTAQFVKPFTEAQLLCTQAGGQLASPRSAAENAALQQLVVAKNEAAFLSMTDSKTEGKFTYPTGESLVYSNWAPGEPNDDGGSEDCVEIFTNGKWNDVACGEKRLVVCEF
Fuc(a1-2)Gal
  glycan array binding signal (z-score): 2.03
Fuc(a1-2)Gal(b1-3)GalNAc
  glycan array binding signal (z-score): -0.225
[1]
  glycan array binding signal (z-score): -0.52
[2]
  glycan array binding signal (z-score): -0.437
[3]
  glycan array binding signal (z-score): -0.399
Fuc(a1-2)Gal(b1-3)GlcNAc
  glycan array binding signal (z-score): -0.59
[4]
  glycan array binding signal (z-score): -0.56
[5]
  glycan array binding signal (z-score): 1.17
Fuc(a1-2)Gal(b1-4)Glc
  glycan array binding signal (z-score): -0.171
Fuc(a1-2)Gal(b1-4)Glc6S
  glycan array binding signal (z-score): -0.514
Fuc(a1-2)Gal(b1-4)GlcNAc
  glycan array binding signal (z-score): -0.411
[6]
  glycan array binding signal (z-score): 1.5
[7]
  glycan array binding signal (z-score): 2.05
[8]
  glycan array binding signal (z-score): -0.304
[9]
  glycan array binding signal (z-score): -0.487
[10]
  glycan array binding signal (z-score): -0.374
[11]
  glycan array binding signal (z-score): 0.787
Fuc(a1-2)Gal6S(b1-4)Glc
  glycan array binding signal (z-score): -0.436
[12]
  glycan array binding signal (z-score): -0.304
[13]
  glycan array binding signal (z-score): -0.456
Fuc(a1-2)[Gal(a1-3)]Gal
  glycan array binding signal (z-score): -0.535
[14]
  glycan array binding signal (z-score): -0.546
[15]
  glycan array binding signal (z-score): -0.517
[16]
  glycan array binding signal (z-score): -0.508
[17]
  glycan array binding signal (z-score): -0.548
[18]
  glycan array binding signal (z-score): 1.34
[19]
  glycan array binding signal (z-score): -0.519
[20]
  glycan array binding signal (z-score): -0.559
[21]
  glycan array binding signal (z-score): -0.55
[22]
  glycan array binding signal (z-score): -0.484
[23]
  glycan array binding signal (z-score): 0.482
[24]
  glycan array binding signal (z-score): 1.22
[25]
  glycan array binding signal (z-score): -0.491
Fuc(a1-3)GlcNAc
  glycan array binding signal (z-score): 3.11
[26]
  glycan array binding signal (z-score): -0.264
[27]
  glycan array binding signal (z-score): -0.47
[28]
  glycan array binding signal (z-score): -0.5
[29]
  glycan array binding signal (z-score): -0.543
[30]
  glycan array binding signal (z-score): 0.139
[31]
  glycan array binding signal (z-score): -0.436
[32]
  glycan array binding signal (z-score): -0.544
[33]
  glycan array binding signal (z-score): -0.351
[34]
  glycan array binding signal (z-score): -0.226
[35]
  glycan array binding signal (z-score): -0.365
[36]
  glycan array binding signal (z-score): -0.2
